Results published in the supplement of paper PMC9151546.
Single values are uncertain, as repeats are few or missing.

Assays:
CHO-K1 [1] = assay: relative survival (nuclei to bead ratio vs DMSO control) (% of vehicle control); higher = more surviving cells
Experimental: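 Flow-cytometric in vitro micronucleus assay (Litron MicroFlow) in CHO-K1 cells in 96-well plates, 19 concentrations (4.5-200 µM, n=1 per concentration). Without S9, cells were exposed for 24 h and sampled at 48 h. With Aroclor 1254-induced rat liver S9, cells were exposed for 3-4 h and sampled at 27-28 h. Read-outs are %MN and %hypodiploid nuclei relative to nucleated events, and relative survival as the nuclei-to-bead ratio versus the 1% DMSO vehicle control (x100).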

CHO-K1 [2] = assay: micronucleus frequency (% of nucleated events); higher = more micronuclei (genotoxic)
CHO-K1 [3] = assay: hypodiploid nuclei frequency (% of nucleated events); higher = more hypodiploid events (aneugenic)
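Throughout, for hypodiploid nuclei frequency (% of nucleated events): hypodiploid nuclei gated on a flow cytometer with 488 nm excitation after SYTOX Green staining, cultures at 37 °C, positive controls vinblastine without S9 and cyclophosphamide with S9.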
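Throughout, for micronucleus frequency (% of nucleated events): cells lysed with nuclei stained by SYTOX Green, then micronucleus-gated events counted against nucleated events by flow cytometry with 488 nm excitation.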
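Throughout, for relative survival (nuclei to bead ratio vs DMSO control): Lysed-cell nuclei stained with SYTOX Green and counted against counting beads by flow cytometry at 488 nm excitation, with vinblastine (no S9) and cyclophosphamide (plus S9) as positive controls.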

OCCCl [2-Chloroethanol]
Details	hypodiploid nuclei frequency, CHO-K1 [3] [%]	micronucleus frequency, CHO-K1 [2] [%]	relative survival, CHO-K1 [1]
concentration: 4.48 (µM), S9 metabolic activation: with S9, exposure time: 3-4 hours	0.22	1.14	59.2
concentration: 4.48 (µM), S9 metabolic activation: without S9, exposure time: 24 hours	0.6	1.78	83.2
concentration: 5.6 (µM), S9 metabolic activation: with S9, exposure time: 3-4 hours	0.22	1.26	71.2
concentration: 5.6 (µM), S9 metabolic activation: without S9, exposure time: 24 hours	0.54	1.46	89
concentration: 7 (µM), S9 metabolic activation: with S9, exposure time: 3-4 hours	0.3	1.2	61
concentration: 7 (µM), S9 metabolic activation: without S9, exposure time: 24 hours	0.9	1.68	104
concentration: 8.75 (µM), S9 metabolic activation: with S9, exposure time: 3-4 hours	0.16	0.86	83.1
concentration: 8.75 (µM), S9 metabolic activation: without S9, exposure time: 24 hours	0.68	1.62	105
concentration: 10.9 (µM), S9 metabolic activation: with S9, exposure time: 3-4 hours	0.28	1.56	76.8
concentration: 10.9 (µM), S9 metabolic activation: without S9, exposure time: 24 hours	0.56	2.06	93.6
concentration: 13.7 (µM), S9 metabolic activation: with S9, exposure time: 3-4 hours	0.22	1.36	88
concentration: 13.7 (µM), S9 metabolic activation: without S9, exposure time: 24 hours	0.88	1.86	87.2
concentration: 17.1 (µM), S9 metabolic activation: with S9, exposure time: 3-4 hours	0.3	1.44	90.2
concentration: 17.1 (µM), S9 metabolic activation: without S9, exposure time: 24 hours	0.58	1.48	87.2
concentration: 21.4 (µM), S9 metabolic activation: with S9, exposure time: 3-4 hours	0.4	2.04	92.6
concentration: 21.4 (µM), S9 metabolic activation: without S9, exposure time: 24 hours	0.6	1.12	103
concentration: 26.7 (µM), S9 metabolic activation: with S9, exposure time: 3-4 hours	0.34	1.18	82.2
concentration: 26.7 (µM), S9 metabolic activation: without S9, exposure time: 24 hours	1.04	1.88	115
concentration: 33.4 (µM), S9 metabolic activation: with S9, exposure time: 3-4 hours	0.24	1.44	82.7
concentration: 33.4 (µM), S9 metabolic activation: without S9, exposure time: 24 hours	0.66	2.34	93.6
concentration: 41.7 (µM), S9 metabolic activation: with S9, exposure time: 3-4 hours	0.24	1.68	91.3
concentration: 41.7 (µM), S9 metabolic activation: without S9, exposure time: 24 hours	0.74	2.14	95
concentration: 52.2 (µM), S9 metabolic activation: with S9, exposure time: 3-4 hours	0.26	1.38	76.6
concentration: 52.2 (µM), S9 metabolic activation: without S9, exposure time: 24 hours	0.62	1.84	98.1
concentration: 65.2 (µM), S9 metabolic activation: with S9, exposure time: 3-4 hours	0.28	1.16	64
concentration: 65.2 (µM), S9 metabolic activation: without S9, exposure time: 24 hours	0.84	1.8	111
concentration: 81.5 (µM), S9 metabolic activation: with S9, exposure time: 3-4 hours	0.38	2	86.9
concentration: 81.5 (µM), S9 metabolic activation: without S9, exposure time: 24 hours	0.82	2.48	126
concentration: 102 (µM), S9 metabolic activation: with S9, exposure time: 3-4 hours	0.26	1.68	80.2
concentration: 102 (µM), S9 metabolic activation: without S9, exposure time: 24 hours	0.72	2.68	102
concentration: 127 (µM), S9 metabolic activation: with S9, exposure time: 3-4 hours	0.22	1.3	91.8
concentration: 127 (µM), S9 metabolic activation: without S9, exposure time: 24 hours	1.14	2.3	111
concentration: 159 (µM), S9 metabolic activation: with S9, exposure time: 3-4 hours	0.4	1.14	108
concentration: 159 (µM), S9 metabolic activation: without S9, exposure time: 24 hours	1.42	2.7	111
concentration: 199 (µM), S9 metabolic activation: with S9, exposure time: 3-4 hours	0.36	1.38	94.2
concentration: 199 (µM), S9 metabolic activation: without S9, exposure time: 24 hours	1.4	2.5	100
